Data as given in patent publication US20130109698A1, “Small Molecule Inhibitors of Functions of the HIV-1 Matrix Protein” (priority 2010, published 2013).

Test system: luciferase-reporter HIV-1 NL4-3 pseudotyped with HxBc2 envelope in U87.CD4.CXCR4 target cells
Experiment: Single-round infection assay, early stages (compound present during infection of target cells)
Conditions: for IC50: Human immunodeficiency virus 1, NL43, U87.CD4.CXCR4, read-out: IC50 early stages; for IC50 early stages: U87.CD4.CXCR4 target cells, luciferase
Text: Single-round infectious envelope-pseudotyped luciferase-reporter viruses were produced in 293T cells co-transfected by calcium phosphate precipitation (Profection Mammalian Transfection System; Promega, Madison, Wis.) with the envelope-deficient HIV-1 NL4-3 vector (pNL4-3-LucR^+E^−; a gift of N. R. Landau, New York University) (Connor et al., 1995, Virology 206:935-944), which carries the luciferase-reporter gene; and the HxBc2 envelope-expressing vector (obtained from Kathleen Page and Dan Littman through the AIDS Research and Reference Reagent Program, Division of AIDS, NIAID, NIH) (Page et al., 1990, J Virol 64:5270-5276). All MA mutations within the pNL4-3-LucR^+E^− vector were synthesized and validated by Genescript (Piscataway, N.J.). After 6 h of incubation at 37° C., the DNA-containing medium was removed, cells were washed, and fresh medium with or without MA-targeted inhibitory (MTI) compounds (at concentrations between 3.1 and 100 μM) was added. Supernatants containing the envelope-pseudotyped viruses were collected 2 days later, clarified by centrifugation, aliquoted, and stored at −80° C. until use. Pseudotype stocks were quantified by p24^gag content (Advanced Bioscience Laboratories, Kensington, Md.).
To determine whether the compounds of the invention affect early stages of the viral life cycle, 50 μL medium alone or containing MTI compounds at twice the desired final concentration (between 3.1 and 100 μM) was added to the U87.CD4.CXCR4 target cells plated in 96-well plates, and 50 μL of pseudotype stocks (not treated during production in 293T cells) was added immediately. Alternatively, to study the inhibitory effects of the compounds of the invention during the late stages of the viral life cycle, untreated or MTI-treated pseudotype stocks were diluted 1:10 with fresh medium and 100 μL was used for infection of U87.CD4.CXCR4 target cells; this dilution ensured that any effect observed was due to the concentration of the compound present during viral production and not to the residual amount of compound present during infection of target cells. Assessment of the effects of the compounds of the invention on early and late stages of infection with pseudotype stocks produced with a luciferase-reporter vector encoding a mutant MA was done in the same manner. Infections were performed for 2 days and quantified by measuring luciferase activity in cell lysates (Luciferase Assay System, Promega) using a microplate luminometer (GloMax, Promega).
Effects on assembly were identified by incubating the viral producer cells (293T) in the absence or in the presence of various concentrations of the compounds. Supernatants containing virus (that encodes for firefly luciferase as a reporter gene) were then diluted 10-fold and used to infect the target cells (U87 CD4-CXCR4). Compound-induced aberrant assembly was then manifested as a decrease in infectivity of the target cells, as compared to those infected with virus from untreated cells. Complementarily, effects on early-stage events were determined by producing virus in the absence of compound, then exposing target cells to virus in the absence or presence of various concentrations of compounds. […] The previously discovered small molecule matrix inhibitor ITI-367 ((3-(2-methoxyphenyl)-4-[3-trifluoromethyl-phenyl]-1,2,4-oxadiazol-5-one) was included in this analysis for comparison. Not only do the compounds of the invention show increased efficacy over ITI-367 but these small-molecule inhibitors are capable of disrupting both early- and late-stage processes in the replication cycle of HIV-1. Calculated 50% inhibitory concentration (IC50) values are shown in Table 3.

Row | SMILES | effect on early-stage events, in words | IC50 [µM] | IC50 early stages
1 | COc1c(Cl)cc(C(=O)N2CCN(Cc3nc(-c4ccc(C)cc4)no3)CC2)cc1Cl [CMPD-3, (3,5-dichloro-4-methoxyphenyl)(4-((3-(p-tolyl)-1,2,4-oxadiazol-5-yl)methyl)piperazin-1-yl)methanone] | affect viral replication at an early, pre-integration event | > 100 | –
2 | Cc1ccc(NC(=O)CN2CCN(Cc3nc(-c4ccc(F)cc4)no3)CC2)cc1 [CMPD-7, 2-(4-((3-(4-fluorophenyl)-1,2,4-oxadiazol-5-yl)methyl)piperazin-1-yl)-N-(p-tolyl)acetamide] | – | – | Not Active
3 | COc1cc2nc(CN3CCN(CC(=O)Nc4cccc(C)c4C)CC3)[nH]c(=O)c2cc1OC [CMPD-8, 2-(4-((6,7-dimethoxy-4-oxo-3,4-dihydroquinazolin-2-yl)methyl)piperazin-1-yl)-N-(2,3-dimethylphenyl)acetamide] | affect viral replication at an early, pre-integration event | > 100 | –
4 | COc1ccc(NC(C)=O)cc1NC(=O)Cn1cnc2scc(-c3ccc(C)s3)c2c1=O [CMPD-10, N-(5-acetamido-2-methoxyphenyl)-2-(5-(5-methylthiophen-2-yl)-4-oxothieno[2,3-d]pyrimidin-3(4H)-yl)acetamide] | affect viral replication at an early, pre-integration event | 30 | –
5 | O=C1NC(c2ccccc2)(c2ccccc2)C(=O)N1CN1CCC(c2nc3ccccc3o2)CC1 [CMPD-13, 3-((4-(benzo[d]oxazol-2-yl)piperidin-1-yl)methyl)-5,5-diphenylimidazolidine-2,4-dione] | no activity | – | –
6 | O=C(CNC(=O)COc1ccccc1)NCc1ccc(C(=O)N2CCCCC2)cc1 [CMPD-14, N-(2-oxo-2-((4-(piperidine-1-carbonyl)benzyl)amino)ethyl)-2-phenoxyacetamide] | affect viral replication at an early, pre-integration event | 57 | –
7 | CCOc1ccc(NC(=O)Cc2cn3ccsc3n2)cc1S(=O)(=O)N1CCCCC1 [CMPD-18, N-(4-ethoxy-3-(piperidin-1-ylsulfonyl)phenyl)-2-(imidazo[2,1-b]thiazol-6-yl)acetamide] | affect viral replication at an early, pre-integration event | 26 | –
8 | O=C(NCc1ccc(CN2CCCC2)cc1)c1ccc(C2SCCCS2)cc1 [CMPD-19, 4-(1,3-dithian-2-yl)-N-(4-(pyrrolidin-1-ylmethyl)benzyl)benzamide] | – | – | Not Active
9 | COc1ccccc1-c1noc(=O)n1-c1cccc(C(F)(F)F)c1 [ITI-367, 3-(2-methoxyphenyl)-4-[3-trifluoromethyl-phenyl]-1,2,4-oxadiazol-5-one, reference compound] | – | > 100 | –
